In the supplement of paper PMC4967469:
pIC50: −log10 of the molar value. IC50 is the fitted dose that halves viability relative to control wells, and lower means more sensitive; a fit beyond the top or the lowest dose is shown as a bound at that dose. For AUC the same curve is integrated over the 256-fold range of doses and scaled to a fraction; it is 1 without any effect and falls as sensitivity rises. Where the top dose is marked as inferred, it was derived from the fitted curves, not read from the paper.

Legend:
Assay in all cases: Viability of human cancer cell lines after 72 h of drug (GDSC screen)
XMD14-99 = compound: COc1cc(N2CCN(C)CC2)ccc1Nc1nc(N)c(C(=O)c2c(Cl)cccc2Cl)s1 [XMD14-99]; settings: top dose 10.24 µM; top dose inferred
Experimental: (§1)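 Human cancer cell lines in 384-well plates, medium with 10% serum, drug for 72 h over a 256-fold dose range (nine 2-fold or five 4-fold steps up to the top dose). Adherent lines were fixed and stained with the nucleic acid dye Syto60, suspension lines read with resazurin; signal relative to control wells, capped at 0 and 100%. One two-parameter sigmoid per drug and line, fitted in a mixed model over all curves with the slope shared within a line.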

FH535 = compound: Cc1cc([N+](=O)[O-])ccc1NS(=O)(=O)c1cc(Cl)ccc1Cl [FH535]; settings: top dose 32 µM; top dose inferred
Experimental: as §1

AT-7519 = compound: O=C(NC1CCNCC1)c1n[nH]cc1NC(=O)c1c(Cl)cccc1Cl [AT-7519]; settings: top dose 10.24 µM; top dose inferred
Experimental: as §1

Cell Line	AUC (XMD14-99)	pIC50 (XMD14-99)	AUC (FH535)	pIC50 (FH535)	AUC (AT-7519)	pIC50 (AT-7519)
COR-L105 (lung adenocarcinoma, adherent)	0.957	< 4.99	0.638	5.28	0.736	5.45
M14 (melanoma, adherent)	0.985	< 4.99	0.904	< 4.49	0.88	< 4.99
HLE (liver, adherent)	0.985	< 4.99	0.532	5.61	0.834	5.21
KMRC-20 (kidney, adherent)	0.983	< 4.99	0.449	5.84	0.985	< 4.99
RCM-1 (large intestine, adherent)	0.975	< 4.99	0.66	5.21	0.92	< 4.99
OE19 (oesophagus, adherent)	0.985	< 4.99	0.616	5.36	0.984	< 4.99
SiHa (cervix, adherent)	0.986	< 4.99	0.763	4.88	0.911	< 4.99
201T (lung adenocarcinoma, adherent)	0.972	< 4.99	0.554	5.54	0.773	5.30
BT-20 (breast, adherent)	0.984	< 4.99	0.696	5.09	0.594	5.91
CHSA0011 (chondrosarcoma, adherent)	0.971	< 4.99	0.905	< 4.49	0.624	5.79
NCI-H2009 (lung adenocarcinoma, adherent)	0.986	< 4.99	0.505	5.68	0.986	< 4.99
SW948 (large intestine, adherent)	0.982	< 4.99	0.725	4.92	0.958	< 4.99
BHY (head and neck, adherent)	0.987	< 4.99	0.614	5.38	0.487	6.23
JHU-011 (head and neck, adherent)	0.888	< 4.99	0.624	5.36	0.369	6.55
MOG-G-UVW (glioma, adherent)	0.985	< 4.99	0.572	5.50	0.516	6.15
JHH-7 (liver, adherent)	0.988	< 4.99	0.415	5.92	0.933	< 4.99
SW837 (large intestine, adherent)	0.983	< 4.99	0.596		0.79	5.20
SJRH30 (rhabdomyosarcoma, adherent)	0.981	< 4.99	0.525	5.63	0.55	6.05
SW1710 (bladder, adherent)	0.976	< 4.99	0.558	5.54	0.856	5.06
NCI-H650 (lung adenocarcinoma, adherent)	0.983	< 4.99	0.861	4.50	0.594	5.92
MDA-MB-468 (breast, adherent)	0.969	< 4.99	0.437	5.87	0.626	5.85
23132-87 (stomach, adherent)	0.984	< 4.99	0.594	5.44	0.687	5.66
H2731 (mesothelioma, adherent)	0.954	< 4.99	0.662	5.22	0.984	< 4.99
MFE-296 (endometrium, adherent)	0.985	< 4.99	0.619	5.36	0.893	< 4.99
SCC-25 (head and neck, adherent)	0.973	< 4.99	0.688	5.14	0.477	6.26
NCI-H810 (large cell lung carcinoma, adherent)	0.947	< 4.99	0.404	5.96	0.488	6.23

Cell Line	AUC (XMD14-99)	pIC50 (XMD14-99)	AUC (FH535)	pIC50 (FH535)	AUC (AT-7519)	pIC50 (AT-7519)
SW1088 (glioma, adherent)	0.981	< 4.99	0.717	5.00	0.938	< 4.99
MCF7 (breast, adherent)	0.986	< 4.99	0.551	5.56	0.976	< 4.99
Capan-2 (pancreas, adherent)	0.974	< 4.99	0.683	5.13	0.957	< 4.99
NCI-H1703 (lung adenocarcinoma, adherent)	0.981	< 4.99	0.6	5.40	0.83	5.07
J82 (bladder, adherent)	0.988	< 4.99	0.493	5.72	0.919	< 4.99
SBC-5 (small cell lung carcinoma, adherent)	0.992	< 4.99	0.482	5.74	0.987	< 4.99
HT55 (large intestine, adherent)	0.99	< 4.99	0.927	< 4.49	0.973	< 4.99
RH-41 (rhabdomyosarcoma, adherent)	0.992	< 4.99	0.795	4.91	0.884	5.10
OE33 (oesophagus, adherent)	0.976	< 4.99	0.718		0.835	5.06
IGR-37 (melanoma, adherent)	0.989	< 4.99	0.449	5.83	0.967	< 4.99
AGS (stomach, adherent)	0.988	< 4.99	0.685	5.21	0.602	5.93
KYSE-50 (oesophagus, adherent)	0.935	< 4.99	0.42	5.91	0.578	5.99
H2818 (mesothelioma, adherent)	0.97	< 4.99	0.929	< 4.49	0.956	< 4.99
EFO-21 (ovary, adherent)	0.973	< 4.99	0.722	4.94	0.558	6.01
HARA (lung squamous cell carcinoma, adherent)	0.967	< 4.99	0.657	5.23	0.415	6.44
SAS (head and neck, adherent)	0.972	< 4.99	0.925	< 4.49	0.513	6.16
U-2-OS (osteosarcoma, adherent)	0.975	< 4.99	0.934	< 4.49	0.983	< 4.99
MC-IXC (neuroblastoma, adherent)	0.996	< 4.99	0.549	5.58	0.498	6.20
MHH-ES-1 (Ewing sarcoma, adherent)	0.872	5.02	0.679	5.20	0.356	6.59
COLO-783 (melanoma, adherent)	0.99	< 4.99	0.913	< 4.49	0.857	5.11
SW1271 (small cell lung carcinoma, adherent)	0.965	< 4.99	0.595	5.42	0.883	< 4.99
NCI-H1623 (lung adenocarcinoma, adherent)	0.984	< 4.99	0.898	< 4.49	0.955	< 4.99
HT-1376 (bladder, adherent)	0.984	< 4.99	0.599	5.41	0.965	< 4.99
SK-N-AS (neuroblastoma, adherent)	0.98	< 4.99	0.544	5.57	0.663	5.71
VM-CUB-1 (bladder, adherent)	0.987	< 4.99	0.683	5.20	0.963	< 4.99
CAMA-1 (breast, adherent)	0.976	< 4.99	0.413	5.96	0.857	< 4.99

Cell Line	AUC (XMD14-99)	pIC50 (XMD14-99)	AUC (FH535)	pIC50 (FH535)	AUC (AT-7519)	pIC50 (AT-7519)
NCI-H1915 (large cell lung carcinoma, adherent)	0.962	< 4.99	0.583	5.47	0.646	5.79
SNU-182 (liver, adherent)	0.986	< 4.99	0.735	5.01	0.449	6.34
786-0 (kidney, adherent)	0.914	< 4.99	0.591	5.46	0.567	6.02
TOV-21G (ovary, adherent)	0.958	< 4.99	0.98	< 4.49	0.457	6.31
G-361 (melanoma, adherent)	0.953	< 4.99	0.494	5.71	0.831	5.21
NCI-H2087 (lung adenocarcinoma, semi-adherent)	0.972	< 4.99	0.496	5.71	0.408	6.45
HCC-78 (lung adenocarcinoma, adherent)	0.967	< 4.99	0.764	4.87	0.428	6.41
NCI-H28 (mesothelioma, adherent)	0.978	< 4.99	0.714	5.01	0.966	< 4.99
FU-OV-1 (ovary, adherent)	0.966	< 4.99	0.694	5.08	0.736	5.42
JIMT-1 (breast, adherent)	0.985	< 4.99	0.567	5.51	0.902	< 4.99
NCI-H2023 (lung adenocarcinoma, adherent)	0.98	< 4.99	0.611	5.36	0.945	< 4.99
NCI-H1048 (small cell lung carcinoma, adherent)	0.978	< 4.99	0.876	4.58	0.558	6.04
SNU-449 (liver, adherent)	0.979	< 4.99	0.641	5.29	0.919	< 4.99
G-401 (kidney, adherent)	0.918	< 4.99	0.399	5.99	0.65	5.76
ML-1 (thyroid, adherent)	0.984	< 4.99	0.535	5.60	0.811	5.18
PCI-6A (head and neck, adherent)	0.987	< 4.99	0.7	5.14	0.511	6.16
HCC1143 (breast, adherent)	0.98	< 4.99	0.457	5.84	0.687	5.58
HCC1569 (breast, adherent)	0.945	< 4.99	0.599	5.39	0.599	5.88
P12-ICHIKAWA (T-cell lymphoblastic leukaemia, suspension)	0.951	< 4.99	0.809	4.91	0.251	6.82
MES-SA (uterus, adherent)	0.992	< 4.99	0.707	5.16	0.855	5.20
BHT-101 (thyroid, adherent)	0.974	< 4.99	0.676	5.20	0.931	< 4.99
T84 (large intestine, adherent)	0.97	< 4.99	0.655	5.27	0.949	< 4.99
OVCAR-8 (ovary, adherent)	0.99	< 4.99	0.646	5.32	0.715	5.62
MDA-MB-361 (breast, adherent)	0.989	< 4.99	0.548	5.57	0.972	< 4.99
